# The list shows a part of the results.
# B1: PX9896A-bth-573-26-573 (Bacteroides thetaiotaomicron) (protein)
# chain: ETNNLKTKEDMYKYFGTSKSMLTHVYSYMPQGYQLFATSGGIFTEDRYSMRDCASDDGEFGAYADNIQNTNNGNWSPIKTYDDSWTLYRGIRAANSFIAEIAQVDFTRYEHDGQYTNWMKQLKYFPYEARVLRAHYFFELARRYGDIAMPLEVLTEEEANTIGKTPFSEVISFIVSECDDAANNLPDSYVNEPGAEIGRVTKGFAMAVKSKALLYAASKLHNPSMDTELWKKSAKAAIDIINTGLYSLDPQESANNLDSKEVVLMRINGDDSDFEMFNLPLRMTAGTRTSSLIPYSNYPSQNLVDAFETVNGYKVTLENTGWVCEDPAFDPQSPYENRDKRFYRAILANGMSFKDYTIETFKGGADDGIVSQGGSPTGYFLRKYIQEATSFEPGKEAVSKHHWVIYRYAETLLTYAESMVNAFNDVNYTDETYKYSALWAINEVRKNADMPLIPSMGKDEFMERLYNEWRVEFAFEDHRFWDVRRWKIADTTQRELYGVKIEKQADGTFNFYKNLYETRNWRDCMYLYPIPQSELYKNTNLNPQNTGW
# Tests used:
# Assay in all cases: glycan array binding signal (z-score within array); higher = stronger binding
# Conditions in all cases: glycan notation: IUPAC condensed, linker removed
# Gal3S(b1-4)Glc = molecular target: Gal3S(b1-4)Glc
# Outline: (§1)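 Arrays were curated from the Consortium for Functional Glycomics database, 3228 in total, and kept only where the protein sequence was available. Binding is expressed as a within-array Z-score. This score was averaged across arrays of the same protein sequence at different concentrations or buffers and across linkers, and negative values can be read as non-binding.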
# Gal3S(b1-4)Glc6S = molecular target: Gal3S(b1-4)Glc6S
# Outline: as §1
# Gal3S(b1-4)GlcNAc = molecular target: Gal3S(b1-4)GlcNAc
# Outline: as §1
# [1] = molecular target: Gal3S(b1-4)[Fuc(a1-3)]Glc6S
# Outline: as §1
# [2] = molecular target: Gal3S(b1-4)[Fuc(a1-3)]GlcNAc
# Outline: as §1
# [3] = molecular target: Gal3S(b1-4)[Fuc(a1-3)]GlcNAc6S
# Outline: as §1
# Gal3S4S(b1-4)GlcNAc = molecular target: Gal3S4S(b1-4)GlcNAc
# Outline: as §1
# Gal3S6S(b1-4)GlcNAc = molecular target: Gal3S6S(b1-4)GlcNAc
# Outline: as §1
# Gal3S6S(b1-4)GlcNAc6S = molecular target: Gal3S6S(b1-4)GlcNAc6S
# Outline: as §1
# Gal4S(b1-4)GlcNAc = molecular target: Gal4S(b1-4)GlcNAc
# Outline: as §1
# Gal4S6S(b1-4)GlcNAc = molecular target: Gal4S6S(b1-4)GlcNAc
# Outline: as §1
# Gal6P(b1-4)GlcNAc = molecular target: Gal6P(b1-4)GlcNAc
# Outline: as §1
# Gal6S(b1-3)GlcNAc = molecular target: Gal6S(b1-3)GlcNAc
# Outline: as §1
# Gal6S(b1-3)GlcNAc6S = molecular target: Gal6S(b1-3)GlcNAc6S
# Outline: as §1
# Gal6S(b1-4)Glc = molecular target: Gal6S(b1-4)Glc
# Outline: as §1
# Gal6S(b1-4)Glc6S = molecular target: Gal6S(b1-4)Glc6S
# Outline: as §1
# Gal6S(b1-4)GlcNAc = molecular target: Gal6S(b1-4)GlcNAc
# Outline: as §1
# Gal6S(b1-4)GlcNAc6S = molecular target: Gal6S(b1-4)GlcNAc6S
# Outline: as §1
# GalNAc(a1-3)Gal = molecular target: GalNAc(a1-3)Gal
# Outline: as §1
# GalNAc(a1-3)GalNAc = molecular target: GalNAc(a1-3)GalNAc
# Outline: as §1
# [4] = molecular target: GalNAc(a1-3)GalNAc(b1-3)Gal(a1-4)Gal(b1-4)Glc
# Outline: as §1
# [5] = molecular target: GalNAc(a1-3)GalNAc(b1-3)Gal(a1-4)Gal(b1-4)GlcNAc
# Outline: as §1
# GalNAc(b1-3)Gal = molecular target: GalNAc(b1-3)Gal
# Outline: as §1
# [6] = molecular target: GalNAc(b1-3)Gal(a1-4)Gal(b1-4)GlcNAc
# Outline: as §1
# [7] = molecular target: GalNAc(b1-3)Gal(a1-4)Gal(b1-4)GlcNAc(b1-3)Gal(b1-4)Glc
# Outline: as §1
# [8] = molecular target: GalNAc(b1-3)Gal(a1-6)Gal(b1-4)Glc
# Outline: as §1
# GalNAc(b1-3)GalNAc = molecular target: GalNAc(b1-3)GalNAc
# Outline: as §1
# GalNAc(b1-3)GlcNAc = molecular target: GalNAc(b1-3)GlcNAc
# Outline: as §1
# GalNAc(b1-4)Gal(b1-4)Glc = molecular target: GalNAc(b1-4)Gal(b1-4)Glc
# Outline: as §1
# GalNAc(b1-4)GlcNAc = molecular target: GalNAc(b1-4)GlcNAc
# Outline: as §1
binder,measurement,setting,value
B1,glycan array binding signal (z-score),Gal3S(b1-4)Glc,-0.136
same,glycan array binding signal (z-score),Gal3S(b1-4)Glc6S,-0.084
same,glycan array binding signal (z-score),Gal3S(b1-4)GlcNAc,-0.003
same,glycan array binding signal (z-score),[1],-0.105
same,glycan array binding signal (z-score),[2],-0.42
same,glycan array binding signal (z-score),[3],0.407
same,glycan array binding signal (z-score),Gal3S4S(b1-4)GlcNAc,0.471
same,glycan array binding signal (z-score),Gal3S6S(b1-4)GlcNAc,-0.014
same,glycan array binding signal (z-score),Gal3S6S(b1-4)GlcNAc6S,-0.205
same,glycan array binding signal (z-score),Gal4S(b1-4)GlcNAc,0.269
same,glycan array binding signal (z-score),Gal4S6S(b1-4)GlcNAc,-0.373
same,glycan array binding signal (z-score),Gal6P(b1-4)GlcNAc,-0.2
same,glycan array binding signal (z-score),Gal6S(b1-3)GlcNAc,0.519
same,glycan array binding signal (z-score),Gal6S(b1-3)GlcNAc6S,3.99
same,glycan array binding signal (z-score),Gal6S(b1-4)Glc,0.264
same,glycan array binding signal (z-score),Gal6S(b1-4)Glc6S,1.28
same,glycan array binding signal (z-score),Gal6S(b1-4)GlcNAc,0.263
same,glycan array binding signal (z-score),Gal6S(b1-4)GlcNAc6S,0.104
same,glycan array binding signal (z-score),GalNAc(a1-3)Gal,0.8
same,glycan array binding signal (z-score),GalNAc(a1-3)GalNAc,-0.575
same,glycan array binding signal (z-score),[4],-0.609
same,glycan array binding signal (z-score),[5],-0.359
same,glycan array binding signal (z-score),GalNAc(b1-3)Gal,-0.52
same,glycan array binding signal (z-score),[6],2.03
same,glycan array binding signal (z-score),[7],-0.112
same,glycan array binding signal (z-score),[8],-0.503
same,glycan array binding signal (z-score),GalNAc(b1-3)GalNAc,0.355
same,glycan array binding signal (z-score),GalNAc(b1-3)GlcNAc,-0.426
same,glycan array binding signal (z-score),GalNAc(b1-4)Gal(b1-4)Glc,-0.435
same,glycan array binding signal (z-score),GalNAc(b1-4)GlcNAc,0.356
